Results: ChEMBL document CHEMBL4888484, “Replenishing the malaria drug discovery pipeline: Screening and hit evaluation of the MMV Hit Generation Library 1 (HGL1) against asexual blood stage Plasmodium falciparum ,using a nano luciferase reporter read-out” (2022)
Several values for one entry are separate records, joined by “and”; a condition that tells them apart may be missing. Identical values can stand only once. The whole screen tested about 150,000 compounds, of which about 540 (0.36%) showed an effect of 50% or more. This is one part of the list.

Tested on: Plasmodium falciparum
Test: Primary screen in NF54 nanoGlo assay, in single point, at 2uM, 72h; a lower Z score goes with more inhibition
Assay type: functional, Erythrocyte
Details: timepoint 72 hour

Row | SMILES | % Inhibition [%] | Z score | Z score (2 µM)
1 | CC(=O)N1C(=O)c2ccc(Oc3cccc(N4C(=O)c5cccnc5C4=O)c3)cc2C1=O | 4 | -0.59 | –
2 | Cc1cnc(C(=O)N2CCC(CNC(=O)c3ccc4c(c3)ncn4C)CC2)cn1 | -1 | 0.17 | –
3 | Cc1ccc(S(=O)(=O)N[C@@H](C)C(=O)NCc2cscn2)c(C)c1 | -5 | 0.6 | –
4 | CN(C)S(=O)(=O)CCNC(=O)COc1cccc2c1ccn2Cc1ccccc1 | -14 | 1.72 | –
5 | CCCC(C#N)NC(=O)C(O)C1CCN(C(=O)OC(C)(C)C)CC1 (stereo not given) | -15 | 1.77 | –
6 | O=C(NC1CCCCC1)[C@H]1CCCN(c2cnn(Cc3ccccc3)c(=O)c2)C1 | 32 | -3.6 | –
7 | CCOc1c(Br)cc(Cl)cc1NCC(=O)NC(=O)NC1CCCC1 | 7 | -0.97 | –
8 | Cc1ccc(-n2nc(C)c3sc(N4CCCC(C(=O)NCC5CCCO5)C4)nc32)cc1 (stereo not given) | -12 | 1.56 | –
9 | O=C(Nc1ccccc1)N(Cc1ccccc1)Cc1ccccc1 | 12 | -2.27 | –
10 | CC(C)Nc1cccc(CNC(=O)C2(C)CC3CCC2O3)c1 (stereo not given) | -18 | 1.79 | –
11 | Cc1n[nH]c(C)c1CC(C)C(=O)N1CCCC1C(C)(C)O (stereo not given) | -2 | 0.21 | –
12 | CC(C)C[C@H](C)CC(=O)NS(=O)(=O)c1ccsc1C(N)=O | 8 | -1.43 | –
13 | Cc1cc(C(=O)N2CCN[C@@H](Cc3ccccc3)C2)ncn1 | -4 | 0.7 | –
14 | Brc1ccc(CNCCn2cnnc2C2CC2)cc1 | 32 | -3.62 | –
15 | Cc1ccc(CNC(=O)N2CCN(S(=O)(=O)c3ccccc3)CC2)s1 | -7 | 0.86 | –
16 | Cc1cnc(C)c(N2CC[C@H]3[C@H](CCC(=O)N3CCCCO)C2)n1 | 2 | -0.46 | –
17 | COc1ccc2cc([C@@]3(C)NC(=O)N(CC(=O)N4CCN(S(C)(=O)=O)CC4)C3=O)ccc2c1 | -11 | 1.54 | –
18 | O=C(N[C@@H](Cc1ccncc1)C1CC(O)C1)c1cccc(-c2ccco2)c1 (stereo not given in full) | 2 | -0.16 | –
19 | CN1CCC[C@H](NC(=O)c2cc(F)cc(Cl)c2O)C1=O | 0 | 0.08 | –
20 | O=C(N[C@H]1CCCc2ccccc21)c1cc(-c2ccccc2)nc2ccccc12 | 0 | 0.01 | –
21 | Cc1onc(-c2ccccc2Cl)c1C(=O)N[C@@H](C)c1nccn1-c1ccccc1 | -7 | 1.28 | –

Row | SMILES | % Inhibition [%] | Z score | Z score (2 µM)
22 | Cn1ccnc1C(=O)N1C[C@@H](Oc2cccnc2)C[C@H]1C(=O)N1CCOCC1 | 3 | -0.37 | –
23 | CCC(=O)N(Cc1c(-c2cccc(C)c2)noc1N1CCOCC1)C1CC1 | -5 | 0.64 | –
24 | CCOC(=O)c1c(C)[nH]c(C(=O)N2[C@@H]3CC[C@H]2CNC(=O)C3)c1C | -6 | 1.09 | –
25 | CCN(C(=O)CN(C)CCO)c1ccccc1C | -5 | 0.73 | –
26 | FC(F)(F)c1ncnc(N2CCc3nc[nH]c3C2)c1Br | -11 | 1.61 | –
27 | COc1ccc(NC(=O)c2ccc(COC(=O)c3ccc(C)c(O)c3)cc2)cc1 | -13 | 1.82 | –
28 | COc1ccc(CCNCC(=O)Nc2c3c(nc4ccccc24)N(C)CC3)cc1OC | – | – | -0.45 and -0.99
29 | CC[C@@H](CO)NC(=O)Nc1cccnc1 | -11 | 0.95 | –
30 | CCc1cccc(NC(=O)N2CCC3(CC2)C(=O)N(CC(=O)Nc2ccc(F)cc2)CN3c2ccccc2)c1 | 36 | -7.73 | –
31 | CCc1nccc(N2CCO[C@@H](CCF)C2)n1 | -14 | 1.24 | –
32 | CC(C)C1NC2(C(=O)Nc3ccccc32)C2C(=O)N(c3ccccc3Br)C(=O)C12 (stereo not given) | -7 | 0.83 | –
33 | O=C(CN1CC[C@@]2(CCCN(CC3CCCCC3)C2=O)C1)NCc1ccco1 | 3 | -0.61 | –
34 | COC(=O)NCC1(C)CC(NC(=O)OC)CC(C)(C)C1 (stereo not given) | -2 | 0.2 | –
35 | O=C(C1CCC(Cn2c(=O)[nH]c3ccsc3c2=O)CC1)N1CCCC1 (stereo not given) | 3 | -0.23 | –
36 | C#CCNC(=O)c1ccnc(OC2CCOCC2)c1 | -3 | 0.49 | –
37 | COC1CCN(C(=O)N[C@H]2COc3c2ccc(Cl)c3Cl)CC1 | 0 | 0.01 | –
38 | CCCN1C[C@]23C=C[C@H](O2)[C@H](C(=O)N(C)Cc2noc(C(C)C)n2)[C@@H]3C1=O | 5 | -0.85 | –
39 | CCc1nc(C)c(C(=O)N[C@H]2CCOC2)o1 | 8 | -1.05 | –
40 | O=C(c1cccnc1)N1CC(c2nc(-c3ccco3)no2)C1 | 18 | -2.02 | –
41 | CN(CCCn1cccn1)Cc1ccncc1Cl | 0 | -0.07 | –
42 | CC(=O)c1cc(C(=O)NC(C)(C)CC2Cc3ccccc3C2)[nH]n1 | -32 | 3.22 | –

Row | SMILES | % Inhibition [%] | Z score | Z score (2 µM)
43 | O=C(c1n[nH]c2c1CCCCCC2)N1CCC(c2nc(C3CCOCC3)no2)CC1 | -3 | 0.4 | –
44 | COc1ccc(NC(=O)[C@@H]2CCCN2Cc2csc(C(C)(C)C)n2)cc1 | -2 | 0.26 | –
45 | Cc1cccc(-n2nc(CC(N)=O)nc2-c2ccc(Cn3cccn3)o2)c1C | 6 | -0.99 | –
46 | CCN1CCC[C@@H]1CN(C)CCn1nc(C)cc1C | -8 | 1.43 | –
47 | O=C1NC2(CCCCC2)C(=O)N1CCC(=O)N1CCCC[C@H]1c1ccc(C(F)(F)F)cc1 | 2 | -0.28 | –
48 | CCc1cc(C(=O)N(CC(F)F)C2CCN(S(C)(=O)=O)CC2)[nH]n1 | 28 | -3.18 | –
49 | N#C[C@@H](C(=O)c1ccc(C(F)(F)F)cc1)c1nnnn1-c1ccccc1 | -9 | 1.08 | –
50 | CCc1ccc(S(=O)(=O)N2C[C@H](C(=O)NC3CCCCC3)C3(CCOCC3)C2)cc1 | -7 | 1.4 | –
51 | Cn1nncc1S(=O)(=O)N1CCOc2c1cccc2C(F)(F)F | -6 | 0.95 | –
52 | Cc1c(C(=O)NC2(c3noc([C@H]4CCOC4)n3)CCCCCC2)cnn1C | 6 | -1.01 | –
53 | Cc1nn(C)cc1CNC(=O)C[C@@H](c1cccc(O)c1)c1ccccc1Cl | 12 | -1.63 | –
54 | COCc1nsc(NC(=O)c2occc2C)n1 | -15 | 1.7 | –
55 | Cn1ccc2cc(C(O)CNC(=O)C3CC=CCC3)ccc21 (stereo not given) | -8 | 0.97 | –
56 | CC[C@H](C)NC(=O)Cn1c2ccccc2c2nnc(-n3nc(C)cc3C)nc21 | 7 | -1.02 | –
57 | Cc1noc(C)c1S(=O)(=O)N1CCC2(CCCCO2)CC1 | -4 | 0.77 | –
58 | Cc1ccc(N2C(=O)CC[C@@]2(C)C(=O)NC2CCCC2)cc1 | -8 | 0.9 | –
59 | O=C(N[C@@H](Cc1ccccc1)C(=O)O)c1ccc(Br)cn1 | 0 | -0.05 | –
60 | CCOc1ccc(C(=O)N2c3ccccc3C[C@@H]2C)nn1 | 4 | -0.44 | –
61 | C#CCOc1ccccc1CN1CCCC2(C1)OCCO2 | -13 | 1.13 | –
62 | N#Cc1cccc(CN(Cc2cccc(C#N)c2)[C@@H]2CO[C@H](CNC(=O)c3ccccc3)[C@H]2O)c1 | 35 | -3.95 | –
63 | Cc1nc(C(=O)NCCN2CCOCC2)c(-c2ccc(F)cc2)s1 | -1 | 0.14 | –

Row | SMILES | % Inhibition [%] | Z score | Z score (2 µM)
64 | CC(C)N(Cc1ccccc1)C[C@H](C)N | 4 | -0.48 | –
65 | Cc1nnsc1CN(C)Cc1ccc([C@@H]2CCCCO2)s1 | -8 | 1.12 | –
66 | COc1ccc(-c2noc(NCCc3cccc(C)c3)n2)cc1OC | 9 | -1.42 | –
67 | COCCN1C(=O)C[C@H](CNC(=O)c2coc(C)c2)[C@H]1c1cnn(C)c1 | -3 | 0.36 | –
68 | Cc1nc(-c2noc(-c3ccccc3)n2)cn1CC(=O)Nc1ccc(F)c(Cl)c1 | 3 | -0.5 | –
69 | C[C@H](Oc1ccccc1)C(=O)N1CCCN(S(=O)(=O)c2cnn(C)c2)CC1 | 9 | -1.33 | –
70 | CC(=O)N(C)c1cccc(NC(=O)N[C@@H](C)Cc2c(C)noc2C)c1 | 6 | -0.9 | –
71 | CN(Cc1ccc(F)cc1)c1ncnc(Oc2ccccc2F)c1N | 6 | -0.96 | –
72 | O=C(CCC(F)(F)F)NCCN1c2ccccc2N(C2CC2)S1(=O)=O | 17 | -2.22 | –
73 | Cc1ccccc1S(=O)(=O)Cc1ccc(C(=O)N2CCN(C)CC2)o1 | -8 | 1.07 | –
74 | CCCn1nccc1-c1cc(NC2CC2)nc(N)n1 | -19 | 2.01 | –
75 | OCc1ccc(NCc2cccc(OC3CC3)c2F)nc1 | -4 | 0.73 | –
76 | CC(C)CNC(=O)c1ccc2[nH]c(=O)[nH]c2n1 | 6 | -1.17 | –
77 | CC[C@H]1[C@H](NC(=O)c2oc(COc3ccccc3)cc2C)[C@H]2CCO[C@H]21 | -7 | 0.72 | –
78 | COC(=O)N1CC(NC(=O)[C@H](OC2CCCC2)c2ccccc2)C1 | 8 | -1.36 | –
79 | O=C(O)C1CCCC(C(=O)NCCc2ccc3c(c2)OCCO3)C1 (stereo not given) | -8 | 1.21 | –
80 | O=C(c1ccc(Cl)c(NCc2nc(=O)[nH][nH]2)c1)N1CCCCC1 | -4 | 0.43 | –
81 | O=c1n(Cc2ccccc2F)nc(C2CCNCC2)n1Cc1ccccc1 | -5 | 0.62 | –
82 | CC1CCN(S(=O)(=O)c2cccn(CC(=O)N(C)c3ccccc3)c2=O)CC1 | -5 | 0.71 | –
83 | COc1ccc(OC)c(-c2csc(NC(=O)CCOc3ccccc3OC)n2)c1 | 4 | -0.5 | –
